Test results: the supplement of paper PMC3334620
In all, about 33,000 sequences were measured (“E-score (-0.5 to 0.5)”: median about -0.041, highest 2% from about 0.37 on). This is one part of the list.

Each sequence was assayed against T1, Ecm22 (UniProt Q05958) (assay: PBM E-score (8-mer binding enrichment) (E-score (-0.5 to 0.5)); higher = stronger / more preferred TF binding; most listed sequences are background and not binding sites). Conditions: protein concentration: 200 nM; construct: GST-full length.
T1 sequence: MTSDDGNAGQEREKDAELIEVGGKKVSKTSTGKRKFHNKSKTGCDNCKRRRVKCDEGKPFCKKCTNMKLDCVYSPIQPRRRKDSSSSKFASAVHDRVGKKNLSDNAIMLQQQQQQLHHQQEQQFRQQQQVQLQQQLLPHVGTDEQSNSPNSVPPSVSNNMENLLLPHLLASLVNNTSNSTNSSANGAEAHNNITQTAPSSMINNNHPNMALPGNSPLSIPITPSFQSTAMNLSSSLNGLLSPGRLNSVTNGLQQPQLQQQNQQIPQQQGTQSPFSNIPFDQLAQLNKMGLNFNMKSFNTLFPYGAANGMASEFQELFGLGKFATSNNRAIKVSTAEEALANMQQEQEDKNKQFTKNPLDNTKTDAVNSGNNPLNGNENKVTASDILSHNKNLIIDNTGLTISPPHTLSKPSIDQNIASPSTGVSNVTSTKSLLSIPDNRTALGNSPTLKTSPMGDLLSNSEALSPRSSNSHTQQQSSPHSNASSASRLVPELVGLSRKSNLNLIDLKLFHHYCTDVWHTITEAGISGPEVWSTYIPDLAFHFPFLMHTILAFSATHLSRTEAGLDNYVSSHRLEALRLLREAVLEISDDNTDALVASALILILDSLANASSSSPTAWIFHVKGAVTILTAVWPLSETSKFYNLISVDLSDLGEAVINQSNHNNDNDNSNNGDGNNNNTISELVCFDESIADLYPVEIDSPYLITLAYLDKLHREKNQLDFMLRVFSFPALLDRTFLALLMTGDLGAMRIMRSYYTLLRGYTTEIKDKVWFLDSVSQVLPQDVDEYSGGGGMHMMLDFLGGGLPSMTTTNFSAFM
Summary of the method: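 E-scores (a modified Wilcoxon-Mann-Whitney statistic) were assigned by the Universal PBM Analysis Suite to every ungapped eight-base word pooled with its reverse complement. The input came from universal all-10-mer Agilent arrays made double-stranded by primer extension and probed with GST-tagged yeast transcription factors at about 100-200 nM. Fluorescent anti-GST detected bound protein, and masliner normalised the scans.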

| Sequence | PBM E-score |
| --- | --- |
| ATTCCACA | 0.0456 |
| AAAGTCTA | -0.186 |
| ACTGACGC | -0.125 |
| GAGAACAA | 0.124 |
| TGCTGCCA | -0.14 |
| CCCATCAA | 0.0874 |
| CACCTTCC | -0.0449 |
| ACGGCCCA | 0.152 |
| ATTGGGCA | -0.161 |
| AGTTTCCG | 0.17 |
| CAGTCTAG | -0.0959 |
| CTAGGTCA | -0.288 |
| ATCGCTGG | -0.149 |
| TGAATCAA | 0.0462 |
| ATCATCTC | 0.0439 |
| ACGTAGAA | 0.158 |
| GTTCAACA | 0.0576 |
| AAACACCA | -0.231 |
| CACTGCAA | 0.051 |
| ACGTCGCT | 0.241 |
| TAAGGTCA | -0.27 |
| AATCGGCG | -0.00384 |
| CCATAAGG | -0.254 |
| CGCCCGGA | -0.0269 |

| Sequence | PBM E-score |
| --- | --- |
| GGTTCCAC | -0.237 |
| AGGATTTC | -0.0414 |
| ACGGGTCT | -0.124 |
| CCTGTCAG | -0.0921 |
| AAGTAGCA | -0.137 |
| ATGGAACC | -0.0738 |
| ACTGCGCC | -0.169 |
| ATAACAAA | -0.0553 |
| ACCTTGTG | -0.0515 |
| AGACAGGG | -0.277 |
| ACAACTTA | -0.00504 |
| GTCCGTTA | 0.167 |
| AAAATACA | -0.0245 |
| CGAATAGC | 0.172 |
| CAGTCACC | -0.218 |
| GAAGGGCA | -0.243 |
| CCCCCACG | -0.33 |
| GTCATGCA | -0.12 |
| ACATCGGA | 0.175 |
| AGCCTGTG | -0.21 |
| ATCTCTAC | -0.0271 |
| GACTTTAA | -0.109 |
| CACTGCCG | 0.0398 |
| AAATTAAG | -0.0793 |

| Sequence | PBM E-score |
| --- | --- |
| CCATGCGG | -0.162 |
| CTATAACC | 0.163 |
| AGTTATTA | 0.0743 |
| CTTCCTGC | -0.314 |
| CAGTGCTA | -0.0731 |
| AACACTAA | -0.0969 |
| GATAAGGA | -0.0834 |
| GGAAATGA | -0.0702 |
| AACAACTG | -0.112 |
| AATCACGT | 0.182 |
| CGCTAGCA | -0.149 |
| GCACGAAC | 0.222 |
| CCATCTAA | -0.215 |
| GGAATCAC | -0.0614 |
| AGAGCACG | -0.0628 |
| AGGCCGAG | -0.00222 |
| TGGCTGAA | -0.242 |
| ATGTCGGG | 0.0227 |
| CAGATCGA | -0.0331 |
| GATACATC | 0.0609 |
| AAAAAACT | -0.14 |
| ATGTCTAC | 0.0246 |
| ATGTTGGA | 0.00637 |
| GCTTTCCA | -0.0729 |

| Sequence | PBM E-score |
| --- | --- |
| GGTTTTCA | 0.0909 |
| CTCCAAAG | 0.00115 |
| AAGATGCC | -0.12 |
| ACTTTAGC | 0.00477 |
| AGGGGAAC | 0.0609 |
| CATAAACC | -0.0464 |
| CCTACTCG | 0.0958 |
| AGGTATGG | -0.0938 |
| CATAACGG | -0.177 |
| GACCTAGA | -0.0841 |
| CGCGTTAC | 0.159 |
| TTCTAAAA | -0.00887 |
| GTTAAAAC | 0.11 |
| CATTTCCC | -0.00773 |
| ATAATGCC | -0.0529 |
| TACTCTGA | -0.132 |
| CGTCCTAA | -0.236 |
| GCGTGCAC | -0.11 |
| GGAGACCA | -0.269 |
| CCCTGCTC | -0.219 |
| CTGCGTGC | 0.00733 |
| CTCTAGGC | -0.197 |
